Test results as given in PubChem BioAssay AID504332 (National Center for Advancing Translational Sciences (NCATS), 2011).
Hit rate of the full screen: of about 350,000 compounds, about 31,000 (8.9%) were called active. The shares of active, inactive and inconclusive entries below differ from those in the screen. Calls follow the shape of the dose curve; as a rule, active = well fitted inhibition curve with a large enough effect; inconclusive = small, poorly fitted or top-dose-only effect; inactive = no such curve, though single readings can be large or run the other way. Potencies beside an inconclusive call are fits to weak or partial responses and may not hold up.

The compounds below were run against Histone-lysine N-methyltransferase EHMT2 (Homo sapiens) (UniProt Q96KQ7) (assay: qHTS Assay for Inhibitors of Histone Lysine Methyltransferase G9a). Settings: G9a H3K9 monomethylation, AlphaScreen, 2 h; activity, negative = inhibition: at 59 µM (top of the series) unless noted.
UniProt Q96KQ7, sequence (Q96KQ7 whole entry, looked up): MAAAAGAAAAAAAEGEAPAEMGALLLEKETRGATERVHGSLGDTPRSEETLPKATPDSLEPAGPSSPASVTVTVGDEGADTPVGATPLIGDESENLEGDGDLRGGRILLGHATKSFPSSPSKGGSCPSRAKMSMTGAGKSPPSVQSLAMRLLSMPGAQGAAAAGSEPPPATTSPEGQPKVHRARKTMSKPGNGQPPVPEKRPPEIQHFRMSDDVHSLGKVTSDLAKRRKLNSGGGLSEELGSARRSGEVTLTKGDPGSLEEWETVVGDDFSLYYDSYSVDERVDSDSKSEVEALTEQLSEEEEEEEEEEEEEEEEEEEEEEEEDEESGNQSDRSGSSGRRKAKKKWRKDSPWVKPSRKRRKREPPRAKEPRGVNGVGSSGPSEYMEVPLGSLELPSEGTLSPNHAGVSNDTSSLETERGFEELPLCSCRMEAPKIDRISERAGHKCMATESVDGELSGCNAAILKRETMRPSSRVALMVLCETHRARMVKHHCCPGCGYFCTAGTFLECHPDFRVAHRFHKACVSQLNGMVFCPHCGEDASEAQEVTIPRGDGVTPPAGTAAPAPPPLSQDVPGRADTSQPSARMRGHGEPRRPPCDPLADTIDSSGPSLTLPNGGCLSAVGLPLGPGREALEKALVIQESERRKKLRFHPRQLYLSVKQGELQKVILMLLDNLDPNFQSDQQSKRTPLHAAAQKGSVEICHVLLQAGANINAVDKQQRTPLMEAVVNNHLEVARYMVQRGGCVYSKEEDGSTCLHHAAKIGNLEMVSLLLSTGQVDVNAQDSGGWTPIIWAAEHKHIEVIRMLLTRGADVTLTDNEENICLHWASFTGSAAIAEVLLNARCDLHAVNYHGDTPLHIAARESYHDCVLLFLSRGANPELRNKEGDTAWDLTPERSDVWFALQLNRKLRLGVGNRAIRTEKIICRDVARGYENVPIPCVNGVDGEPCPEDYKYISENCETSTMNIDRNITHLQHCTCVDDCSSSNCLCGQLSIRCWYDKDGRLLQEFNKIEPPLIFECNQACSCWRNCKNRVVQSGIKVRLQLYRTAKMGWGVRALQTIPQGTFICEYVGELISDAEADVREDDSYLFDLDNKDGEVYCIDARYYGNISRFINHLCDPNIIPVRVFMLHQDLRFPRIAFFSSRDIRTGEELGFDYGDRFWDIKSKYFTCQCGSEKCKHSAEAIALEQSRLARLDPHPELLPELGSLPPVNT
How it was run: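 Methyltransferase reactions run at room temperature for 2 h (20 nM enzyme, 500 nM biotin-H3K9 peptide, 20 uM SAM) after a 15 min compound preincubation; product detected by AlphaScreen beads and anti-H3K9me1 antibody.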
% is scaled to controls: 0 for no effect and ±100 for the full control effect; potency is read from the fitted curve at half-maximal effect; tags tell the direction and shape of the fitted curve.
Also: nearly all actives have a fitted effect of over 75% in size.

| SMILES | activity, negative = inhibition | Potency |
| --- | --- | --- |
| CCOC(=O)c1ccc(NS(=O)(=O)c2c(C)n[nH]c2C)cc1 | inactive: 1.15% [at 12.7 µM] | – |
| CCCCCN1CN(S(=O)(=O)c2cccs2)c2nc3ccccc3nc21 | – | active: 28.2 µM |
| COc1ccccc1N1CCN(C(=O)Cn2cnc3sc(C)c(S(=O)(=O)N4CCC(C)CC4)c3c2=O)CC1 | – | inconclusive: 5.01 µM [inhibitor, single point] |
| COc1ccc(C2C(C(=O)c3cccs3)=C(O)C(=O)N2c2cccc(C)n2)cc1 (stereo not given) | – | inconclusive: 79.4 µM [inhibitor, single point] |
| O=C(NCC1CC1)Nc1cccs1 | – | inconclusive: 39.8 µM [inhibitor, single point] |
| CCCc1nnc(NC(=O)CN2C(=O)c3ccccc3S2(=O)=O)s1 | – | inconclusive: 2.82 µM [inhibitor, partial curve, poor fit] |
| O=C(Nc1nnc(-c2ccccc2F)s1)c1cccnc1 | – | inconclusive: 28.2 µM [inhibitor, partial curve, poor fit] |
| COc1ccc(CCN(C)C(=O)CSc2nccn2C)cc1OC | – | inconclusive: 39.8 µM [inhibitor, single point] |
| O=C(c1ccc(NC2=NC3CS(=O)(=O)CC3S2)cc1)N1CCc2ccccc2C1 (stereo not given) | – | inconclusive: 89.1 µM [inhibitor, partial curve, poor fit] |
| O=C(O)c1ccccc1SCc1nc2ccccn2c1Br | – | inconclusive: 50.1 µM [inhibitor, partial curve] |
| COc1ccccc1N(CC(=O)NC1CCCCC1)C(=O)CCC(=O)Nc1nccs1 | – | inactive |
| CCOc1ccc2nc(NC(=O)c3ccc(OC)c(S(=O)(=O)N4CCOCC4)c3)sc2c1 | – | inconclusive: 89.1 µM [inhibitor, single point] |
| CCSc1nnc2c(n1)OC(c1ccc(C)s1)Nc1ccccc1-2 (stereo not given) | – | inactive |
| Cc1ccc(C(=O)NC(=S)Nc2ccc3c(c2)OCCO3)c(C)c1 | inconclusive: -81.4% [inhibitor] | – |
| CC1(c2ccccc2)NC(=O)N(CC(=O)Nc2ccccc2C(=O)NC2CC2)C1=O (stereo not given) | – | inactive |
| CCOC(=O)C1C2C=CC3(CN(c4cccc(Cl)c4)C(=O)C13)O2 (stereo not given) | – | inconclusive: 22.4 µM [inhibitor, single point] |
| COCC(=O)OCC(=O)N1N=C(c2ccc(Cl)cc2)CC1c1ccco1 (stereo not given) | – | inconclusive: 79.4 µM [inhibitor, single point] |
| CC(=O)Nc1ccc(S(=O)(=O)N(Cc2ccco2)CC2CCCO2)cc1 (stereo not given) | inconclusive: -76.5% [inhibitor] | – |
| Cc1cc(C)cc(NC(=O)N2CCN(S(C)(=O)=O)CC2)c1 | – | inactive |
| COc1ccc2[nH]c(C)c(C(=O)CN3CCN(C(=O)c4ccco4)CC3)c2c1 | – | active: 50.1 µM |
| O=C(NNC(=S)NCc1ccco1)c1ccccc1Br | – | inactive |
| CCOC(=O)N1CCC(=NNc2ccnc3cc(Cl)ccc23)CC1 | – | active: 35.5 µM |
| Cc1cccc(OCc2nnc(SCC(=O)c3cccs3)n2C)c1C | – | inconclusive: 89.1 µM [inhibitor, partial curve, poor fit] |
| FC(F)Oc1ccc(NC(=S)NC23CC4CC(CC(C4)C2)C3)cc1 | – | inactive |

| SMILES | activity, negative = inhibition | Potency |
| --- | --- | --- |
| CCCOC(=O)C(=O)NNc1ccccc1 | – | active: 39.8 µM |
| COc1cc([N+](=O)[O-])ccc1NC(=O)c1cccc(NC(=O)C(C)C)c1 | – | inconclusive: 89.1 µM [inhibitor, partial curve, poor fit] |
| COc1ccc(C(=O)N/C(=C\c2ccco2)C(=O)NCc2cccnc2)cc1 | – | inconclusive: 39.8 µM [inhibitor, single point] |
| Cc1cccc(C(=O)N2CCC(c3nc4ccccc4s3)CC2)c1 | – | inconclusive: 79.4 µM [inhibitor, partial curve, poor fit] |
| CC(C)Cc1nnc(NC(=O)CCC(=O)N2CCCCC2)s1 | – | inconclusive: 10 µM [inhibitor, partial curve, poor fit] |
| COc1ccc(CC(NC(C)=O)C(=O)NC2CCN(C(=O)C3CC3)CC2)cc1OC (stereo not given) | – | inconclusive: 89.1 µM [inhibitor, single point] |
| COc1cc(NC(=O)N2CCC3(CC2)Nc2ccccc2-n2cccc23)cc(OC)c1OC | – | inconclusive: 31.6 µM [inhibitor, partial curve] |
| Cn1cccc1-c1nc2ccccc2n1Cc1ccccc1 | – | inconclusive: 39.8 µM [inhibitor, single point] |
| Cc1cn2c(=O)c(S(=O)(=O)N3CCN(c4cc(Cl)ccc4C)CC3)c(C)nc2s1 | – | inactive |
| CCOC(=O)c1c(C)oc2c1c(CN1CCN(CCO)CC1)c(O)c1ccccc12 | – | active: 1.41 µM |
| O=C(c1ccc(F)cc1)n1nc(-c2cccnc2)nc1NCc1ccc(F)cc1 | – | inactive |
| COc1ccc(C2CCCN2C(=S)Nc2ccc(C)cc2Cl)cc1OC (stereo not given) | – | inconclusive: 50.1 µM [inhibitor, partial curve] |
| CN(C)c1ccc(/C=C/C(=O)c2ccc(C(C)(C)C)cc2)cc1[N+](=O)[O-] | – | active: 12.6 µM |
| CN(C)c1ccc(C2NCCS2)cc1 (stereo not given) | – | inconclusive: 39.8 µM [inhibitor, partial curve, poor fit] |
| CC(=O)Nc1ccc(S(=O)(=O)Oc2ccc(C(=S)N3CCCCC3)cc2)cc1 | – | inconclusive: 31.6 µM [inhibitor, single point] |
| COc1ccc(C(=O)NCc2n[nH]c(=S)n2-c2ccccc2)cc1OC | – | inconclusive: 4.47 µM [inhibitor, single point] |
| O=c1[nH]c2cc3c(cc2cc1CN(Cc1nnnn1CC1CCCO1)C1CCCCC1)OCO3 (stereo not given) | – | inconclusive: 5.01 µM [inhibitor, partial curve, poor fit] |
| O=C(C#Cc1cccc([N+](=O)[O-])c1)c1ccccc1 | – | inconclusive: 3.55 µM [inhibitor, single point] |
| CC1(C)Cc2c(sc3[nH]c(=S)n(Cc4ccccc4)c(=O)c23)CO1 | – | inconclusive: 31.6 µM [inhibitor, full curve, poor fit] |
| O=C(Cn1c(=O)oc2cc(S(=O)(=O)N3CCCC3)ccc21)Nc1ccc(F)cc1F | – | inactive |
| CCC1=Nc2cc(C(=O)NCc3ccco3)ccc2Sc2ccc(Cl)cc21 | – | inconclusive: 31.6 µM [inhibitor, single point] |
| COc1ccc2c(Sc3ccc(Cl)cc3)c(C(=O)N3CCC(C)CC3)[nH]c2c1 | – | inconclusive: 25.1 µM [inhibitor, partial curve, poor fit] |
| CCCCc1ccc(/C=C(\C#N)C(N)=S)s1 | – | active: 35.5 µM |
| N#Cc1ccccc1NC(=O)C(=O)NCCc1csc(-c2ccc(F)cc2)n1 | inactive: 16.1% [at 12.7 µM] | – |

| SMILES | activity, negative = inhibition | Potency |
| --- | --- | --- |
| CC(=O)c1ccc(OC(=O)CN2C(=O)c3ccccc3C2=O)cc1 | – | inconclusive: 79.4 µM [inhibitor, single point] |
| COc1ccc(CNS(=O)(=O)c2ccc(F)c(C(=O)Nc3ccccc3OC)c2)cc1 | – | inconclusive: 79.4 µM [inhibitor, partial curve, poor fit] |
| CC(C)(C)c1cc(O)c(C(C)(C)C)cc1O | – | inconclusive: 17.8 µM [inhibitor, partial curve, poor fit] |
| CC(=O)C1=C(O)C(=O)N(c2nccs2)C1c1ccccc1 (stereo not given) | – | inconclusive: 89.1 µM [inhibitor, single point] |
| Nc1c(S(=O)(=O)c2ccccc2)csc1C(=O)O | – | inactive |
| O=C(C(=O)N1CCN(c2ccccc2F)CC1)c1cn(CC(=O)N2CCOCC2)c2ccccc12 | – | inactive |
| O=C1c2ccccc2-c2c1cccc2C(=O)N1CCN(C(=O)c2ccco2)CC1 | inconclusive: -85.3% [inhibitor] | – |
| COc1ccc(CC(=O)Nc2nc(-c3ccc(OC)c(OC)c3)cs2)cc1OC | – | inactive |
| CN1CCN(CCC(=O)Nc2ccc(Br)cc2)CC1 | – | inconclusive: 89.1 µM [inhibitor, partial curve, poor fit] |
| CCN(CC)C(=O)CSc1nc2ccccc2c(=O)n1-c1ccccc1OC | – | inconclusive: 7.08 µM [inhibitor, single point] |
| CN1C(=O)C2C(c3ccc(N(C)C)cc3)=NN(Cc3ccccc3)C2C1=O (stereo not given) | – | active: 3.98 µM |
| COc1ccccc1N1CCN(C2CCN(C(=O)c3cccc(F)c3)CC2)CC1 | – | active: 8.91 µM |
| Cc1ccc2cc(CN(CC(C)C)C(=O)C3CCCO3)c(=O)[nH]c2c1 (stereo not given) | – | inconclusive: 39.8 µM [inhibitor, single point] |
| c1ccc(-c2cn(-c3ccccc3)c3ncnc(NCCCN4CCOCC4)c23)cc1 | – | inconclusive: 89.1 µM [inhibitor, single point] |
| CC(=O)CSc1nc2ccccc2o1 | – | inconclusive: 39.8 µM [inhibitor, single point] |
| N#C/C=C(/N)c1ccc(Br)cc1 | – | inactive |
| COc1cc(NS(=O)(=O)c2ccc(C)cc2)c2ncccc2c1 | – | inactive |
| Nc1ccc(Nc2ccc([N+](=O)[O-])cc2[N+](=O)[O-])cc1 | – | active: 44.7 µM |
| COc1ccc(C(=O)Nc2ccc(S(=O)(=O)Nc3cc(C)nc(C)n3)cc2)c(OC)c1 | – | inconclusive: 28.2 µM [inhibitor, single point] |
| CCCn1c(SCC(=O)NNC(=O)c2ccc(OC)cc2)nnc1C(C)C | – | inconclusive: 89.1 µM [inhibitor, single point] |
| O=C(N/N=C/c1ccccn1)c1ccc(S(=O)(=O)N2CCCCCC2)cc1 | – | inconclusive: 89.1 µM [inhibitor, single point] |
| O=C(O)c1ccc2c(=O)n(-c3ccccc3)c(=S)[nH]c2c1 | inconclusive: -89% [inhibitor] | – |
